Data from the supplement of paper PMC8183993.
Where “and” joins values, the source holds several entries; their conditions need not be identical. Equal values may be shown once. Where a name gives a salt, the structure may show the parent alone. ± gives the standard deviation of the averaged measurements. Over roughly 3,100 compounds, “mean cytoplasmic OPP incorporation (global translation) relative to DMSO” has its median near 100; the lowest 2% begin near 56. The list shows a part of the results.

test system: U2OS; test: mean cytoplasmic OPP incorporation (global translation) relative to DMSO (% of DMSO); higher = more protein synthesis; conditions: 10 µM; 24 h
Procedure: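 Primary image-based screen in U2OS cells: compounds at 10 uM for 24 h, then a 1 h o-propargyl-puromycin (OPP) pulse, click labelling, and high-throughput microscopy. Mean cytoplasmic OPP intensity and nuclei count were normalised to DMSO wells within each plate (DMSO = 100) and averaged over triplicate plates.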

Compound	mean cytoplasmic OPP incorporation
COc1ccccc1N1CCN(CCCCNC(=O)c2ccc3ccccc3c2)CC1	112
Cc1c(Cl)cccc1Nc1ncccc1C(=O)O [Clonixin Lysinate]	105
CCC[C@H](NC(=O)/C(C#N)=C/c1cccc(Br)n1)c1ccccc1	27.2
Cc1ccc(/C(=C\CN2CCCC2)c2ccccn2)cc1 [Triprolidine hydrochloride]	101
Cc1ccc(/C(=C\CN2CCCC2)c2ccccn2)cc1 [trans-Triprolidine hydrochloride]	99.5
CC(C)(O/N=C(\C(=O)N[C@@H]1C(=O)N2C(C(=O)[O-])=C(C[n+]3ccccc3)CS[C@H]12)c1csc(N)n1)C(=O)O [Ceftazidime pentahydrate]	83.2
C=C1/C(=C\C=C2/CCC[C@]3(C)[C@@H]([C@H](C)CCCC(C)(C)O)CC[C@@H]23)C[C@@H](O)C[C@@H]1O [1a,25-Dihydroxyvitamin D3]	101
C=C1/C(=C\C=C2/CCC[C@]3(C)[C@@H]([C@H](C)CCCC(C)(C)O)CC[C@@H]23)C[C@@H](O)C[C@@H]1O [Calcitriol (Rocaltrol)]	102
CCc1c2c(nc3ccc(OC(=O)N4CCC(N5CCCCC5)CC4)cc13)-c1cc3c(c(=O)n1C2)COC(=O)[C@]3(O)CC [Irinotecan]	97.2
CCc1c2c(nc3ccc(OC(=O)N4CCC(N5CCCCC5)CC4)cc13)-c1cc3c(c(=O)n1C2)COC(=O)[C@]3(O)CC [Irinotecan hydrochloride trihydrate]	99.7
CCc1c2c(nc3ccc(OC(=O)N4CCC(N5CCCCC5)CC4)cc13)-c1cc3c(c(=O)n1C2)COC(=O)[C@]3(O)CC	95.7
CNCCC=C1c2ccccc2CCc2ccccc21 [Nortriptyline hydrochloride]	109
OC[C@H]1O[C@@H](OCCc2ccc(O)cc2)[C@H](O)[C@@H](O)[C@@H]1O [Salidroside (Rhodioloside)]	121
CC1=C(/C=C/C(C)=C/C=C/C(C)=C/C(=O)O)C(C)(C)CCC1O (stereo not drawn) [4-Hydroxyretinoic acid]	101
C[C@H]1[C@H](NC(=O)/C(=N\OC(C)(C)C(=O)O)c2csc(N)n2)C(=O)N1S(=O)(=O)O [Aztreonam (Azactam, Cayston)]	104
C[C@H]1[C@H](NC(=O)/C(=N\OC(C)(C)C(=O)O)c2csc(N)n2)C(=O)N1S(=O)(=O)O [Aztreonam]	97.9
O=C(NC(NC(=S)Nc1ccc(F)c([N+](=O)[O-])c1)C(Cl)(Cl)Cl)C(c1ccccc1)c1ccccc1 (stereo not drawn)	94.8 ± 9.8
OCc1ccc(O[C@@H]2O[C@H](CO)[C@@H](O)[C@H](O)[C@H]2O)cc1 [Gastrodin (Gastrodine)]	95
N#CC(c1ccnc(NCCc2cccnc2)n1)c1nc2ccccc2s1 (stereo not drawn) [JNK Inhibitor V]	114
CN(N=O)C(=O)N[C@@H](C=O)[C@@H](O)[C@H](O)[C@H](O)CO [Streptozocin]	98
CN(N=O)C(=O)N[C@@H](C=O)[C@@H](O)[C@H](O)[C@H](O)CO [Streptozotocin]	105

Compound	mean cytoplasmic OPP incorporation
Cn1cc(C2=C(c3ccc(Cl)cc3Cl)C(=O)NC2=O)c2ccccc21	104 and 106
Cc1ccc(C(=O)Nc2ccc(S(=O)(=O)O)c3cc(S(=O)(=O)O)cc(S(=O)(=O)O)c23)cc1NC(=O)c1cccc(NC(=O)Nc2cccc(C(=O)Nc3cc(C(=O)Nc4ccc(S(=O)(=O)O)c5cc(S(=O)(=O)O)cc(S(=O)(=O)O)c45)ccc3C)c2)c1 [Suramin hexasodium salt]	95.8
CCC(=O)[C@@]1(C)[C@H](C)C[C@H]2[C@@H]3CCC4=CC(=O)C=C[C@]4(C)[C@H]3[C@@H](O)C[C@@]21C [Rimexolone]	102
CCc1cc(C(N)=S)ccn1 [Ethionamide]	97.2
CN(Cc1ccccc1)C(=O)[C@H](Cc1ccc2ccccc2c1)NC(=O)[C@@H]1C[C@@H](O)CN1C(=O)c1cn(C)c2ccccc12	97.2
Cc1cn([C@@H]2C[C@@H](O)[C@H](CO)O2)c(=O)[nH]c1=O [Telbivudine (Sebivo, Tyzeka)]	99.3
NC(=O)c1ncn([C@@H]2O[C@H](CO)[C@@H](O)[C@H]2O)c1O [Mizoribine (Bredinin)]	102
CN1CCN(C(c2ccccc2)c2ccc(Cl)cc2)CC1 (stereo not drawn) [Chlorcyclizine hydrochloride]	101
O=C(N/N=C/c1ccc([N+](=O)[O-])o1)c1ccc(O)cc1 [Nifuroxazide]	98.6
Cc1cccc(Nc2cc(Cl)nc(SCC(=O)O)n2)c1C	97.9 and 107
Cc1cc(NC(=O)c2cccc(NC(=O)/C=C/CN(C)C)c2)ccc1Nc1nccc(-c2cccnc2)n1	96.1
C[C@@H]1CN(c2c(F)c(N)c3c(=O)c(C(=O)O)cn(C4CC4)c3c2F)C[C@H](C)N1 [Sparfloxacin]	109
CCOC(=O)c1c(C)[nH]c2ccc3c(c12)CN1CCc2cc(OC)ccc2C1O3 (stereo not drawn)	91.5
CC[C@@H]1Cn2c(c3nc(-c4ccccc4)nc-3n(C)c2=O)N1	89.6
CC[C@]12CCCN3CCc4c(n(c5ccccc45)C(=O)C1)[C@@H]32 [Eburnamonine (-)]	85.8
CCn1cc(C(=O)O)c(=O)c2cc(F)c(N3CCN(C)CC3)cc21 [Pefloxacine]	97.9
NC(=O)c1ccncc1 [Isonicotinamide]	109
CC#CCOC(=O)c1c(C)nc2sc3c(c2c1N)CCC(O)C3 (stereo not drawn)	84.1
CCCCCCCCCCC(C)(C)C(=O)Nc1c(OC)cc(OC)cc1OC	101
CNC(=C[N+](=O)[O-])NCCSCc1csc(CN(C)C)n1 [Nizatidine]	97.2
O=C(O)C1=CCNCC1 [Isoguvacine hydrochloride]	101

Compound	mean cytoplasmic OPP incorporation
CCC1=C[C@@H]2CN(C1)Cc1c([nH]c3ccccc13)[C@@](C(=O)OC)(c1cc3c(cc1OC)N(C)[C@H]1[C@@](O)(C(=O)OC)[C@H](OC(C)=O)[C@]4(CC)C=CCN5CC[C@]31[C@@H]54)C2 [Vinorelbine (Navelbine)]	130
CCn1c(=O)[nH]c2ccccc21	106
CC(C)CN(C[C@@H](O)[C@H](Cc1ccccc1)NC(=O)O[C@H]1CCOC1)S(=O)(=O)c1ccc(N)cc1 [Amprenavir (Agenerase)]	106
C=CC(=O)Nc1cccc(Nc2nc(Nc3ccc(NC4CN(CCF)C4)cc3OC)ncc2C(F)(F)F)c1	91.8
COc1cc(C)nc(-n2nc(C)cc2OC)n1 [Epirizole]	101
CS(=O)(=O)Nc1ccc([N+](=O)[O-])cc1Oc1ccccc1 [Nimesulide]	97.3 ± 5.5
CCn1cc(C(=O)O)c(=O)c2cc(F)c(N3CCNC(C)C3)c(F)c21 (stereo not drawn) [Lomefloxacin hydrochloride]	104
COc1cc(NC(=O)c2ccc(-c3ccc(Cl)cc3)o2)cc(OC)c1	102
CCOC(=O)CCC(=O)O[C@H]1[C@H](O[C@@H]2[C@@H](C)[C@H](O[C@H]3C[C@@](C)(OC)[C@@H](O)[C@H](C)O3)[C@@H](C)C(=O)O[C@H](CC)[C@@](C)(O)[C@H](O)[C@@H](C)C(=O)[C@H](C)C[C@@]2(C)O)O[C@H](C)C[C@@H]1N(C)C [Erythromycin Ethylsuccinate]	104
C[C@]12C=CC(=O)C=C1CC[C@@H]1C2=CC[C@]2(C)[C@@H](C(=O)CN3CCN(c4cc(N5CCCC5)nc(N5CCCC5)n4)CC3)CC[C@@H]12	104
C[C@]12C=CC(=O)C=C1CC[C@@H]1[C@@H]2C(=O)C[C@@]2(C)[C@H]1CC[C@]2(O)C(=O)CO [Prednisone]	99.6
C[C@]12C=CC(=O)C=C1CC[C@@H]1[C@@H]2C(=O)C[C@@]2(C)[C@H]1CC[C@]2(O)C(=O)CO [Prednisone (Adasone)]	102
C=CCn1c(=O)n([C@@H]2O[C@H](CO)[C@@H](O)[C@H]2O)c2nc(N)[nH]c(=O)c21	99.2
Nc1ncnc2nc(-c3ccc(N4CCOCC4)nc3)cc(-c3cccc(Br)c3)c12 [ABT 702 dihydrochloride]	101
CC1(C)[C@@H](O[C@H]2O[C@H](C(=O)O)[C@@H](O)[C@H](O)[C@H]2O[C@@H]2O[C@H](C(=O)O)[C@@H](O)[C@H](O)[C@H]2O)CC[C@]2(C)[C@H]3C(=O)C=C4[C@@H]5C[C@@](C)(C(=O)O)CC[C@]5(C)CC[C@@]4(C)[C@]3(C)CC[C@@H]12 [Ammonium Glycyrrhizinate (AMGZ)]	103
CC1(C)[C@@H](O[C@H]2O[C@H](C(=O)O)[C@@H](O)[C@H](O)[C@H]2O[C@@H]2O[C@H](C(=O)O)[C@@H](O)[C@H](O)[C@H]2O)CC[C@]2(C)[C@H]3C(=O)C=C4[C@@H]5C[C@@](C)(C(=O)O)CC[C@]5(C)CC[C@@]4(C)[C@]3(C)CC[C@@H]12 [Glycyrrhizic acid]	98.8
CC(C)(F)C[C@H](N[C@@H](c1ccc(-c2ccc(S(C)(=O)=O)cc2)cc1)C(F)(F)F)C(=O)NC1(C#N)CC1 [Odanacatib (MK 0822)]	109
COc1cc(C)c(/C=C/C(C)=C/C=C/C(C)=C/C(=O)O)c(C)c1C [Acitretin]	101 ± 9.2
C[C@H](NC(=O)[C@@H]1CCCN1C(=O)[C@@H]1CCCN1C(=O)[C@@H](O)[C@H](N)Cc1ccccc1)C(N)=O [Apstatin]	101
O=c1[nH]c(=O)n([C@H]2C[C@H](O)[C@@H](CO)O2)cc1F [Floxuridine (Fludara)]	78.3
O=c1[nH]c(=O)n([C@H]2C[C@H](O)[C@@H](CO)O2)cc1F [Floxuridine]	63.9
